Data from a collection of fitness landscapes (doi:10.1126/science.1257360).
This is one part of the list.

B1: PhoQ; a variant is named by its letters at X, in order, P23837 (parent)
chain: MKKLLRLFFPLSLRVRFLLATAAVVLVLSLAYGMVALIGYSVSFDKTTFRLLRGESNLFYTLAKWENNKLHVELPENIDKQSPTMTLIYDENGQLLWAQRDVPWLMKMIQPDWLKSNGFHEIEADVNDTSLLLSGDHSIQQQLQEVREDDDDAEMTHSVAVNVYPATSRMPKLTIVVVDTIPVELKSSYMVWSWFIYVLSANLLLVIPLLWVAAWWSLRPIEALAKEVRELEEHNRELLNPATTRELTSLVRNLNRLLKSERERYDKYRTTLTDLTHSLKTPLXXLQXXLRSLRSEKMSVSDAEPVMLEQISRISQQIGYYLHRASMRGGTLLSRELHPVAPLLDNLTSALNKVYQRKGVNISLDISPEISFVGEQNDFVEVMGNVLDNACKYCLEFVEISARQTDEHLYIVVEDDGPGIPLSKREVIFDRGQRVDTLRPGQGVGLAVAREITEQYEGKIVAGESMLGGARMEVIFGRQHSAPKDE

Variants of: B1
Assay: enrichment ratio after two sorts for PhoP signalling (ratio (wild type AVST 3.29)); higher = more functional
Details: with PhoP (E. coli)

Variant	enrichment ratio
GPTH	≤ 0.25
YAPW	≤ 0.25
LECE	≤ 0.25
KRTL	≤ 0.25
KPWI	≤ 0.25
HDIG	≤ 0.25
TGDG	1.47
SDES	≤ 0.25
GPFE	≤ 0.25
DEIS	≤ 0.25
KPRN	≤ 0.25
VRSM	≤ 0.25
TGDI	≤ 0.25
YRWH	≤ 0.25
CVYF	≤ 0.25
LVQY	≤ 0.25
MGHD	≤ 0.25
ALSS	3.53
PWMP	≤ 0.25
LYFC	≤ 0.25
CGFN	≤ 0.25
TAMG	17.2
GASA	3.66
AEMH	36.8
HLMK	≤ 0.25
KYLW	≤ 0.25

Variant	enrichment ratio
TSLA	16.6
SWIK	≤ 0.25
RTLF	≤ 0.25
YNAG	≤ 0.25
DHKS	≤ 0.25
TILW	≤ 0.25
NYPY	≤ 0.25
SWDW	≤ 0.25
SDLN	4.44
MGFK	≤ 0.25
NMFW	≤ 0.25
ILIC	≤ 0.25
PCYK	≤ 0.25
MMYR	≤ 0.25
IWMI	≤ 0.25
PILI	≤ 0.25
ITDS	≤ 0.25
MGQF	≤ 0.25
NQNL	≤ 0.25
HKRL	≤ 0.25
ECDK	≤ 0.25
SIGF	8.62
IIWH	≤ 0.25
YHRC	≤ 0.25
ACAI	1.04
SMPM	≤ 0.25

Variant	enrichment ratio
RWCA	≤ 0.25
GHQH	≤ 0.25
QPTG	≤ 0.25
PFIQ	≤ 0.25
MDLR	≤ 0.25
PCID	≤ 0.25
GDCG	≤ 0.25
WLWE	≤ 0.25
SPYE	≤ 0.25
FESF	≤ 0.25
QYIW	≤ 0.25
YGIY	≤ 0.25
VYFW	≤ 0.25
RHAD	≤ 0.25
YALA	1.77
TVRD	≤ 0.25
AGEG	≤ 0.25
LPYN	≤ 0.25
ISGL	≤ 0.25
KTSC	≤ 0.25
VITD	≤ 0.25
VGGK	≤ 0.25
ETCM	≤ 0.25
DNMV	≤ 0.25
MQTW	≤ 0.25
SWIL	2.05

Variant	enrichment ratio
VCLR	≤ 0.25
QVSL	1.9
TTKQ	1.94
FNPG	≤ 0.25
FDWA	≤ 0.25
TTCD	4.79
ITIQ	≤ 0.25
LFPF	≤ 0.25
MDCF	≤ 0.25
THYD	0.791
FTRR	≤ 0.25
PFFN	4.98
TQTS	7.29
HFYW	≤ 0.25
ATRN	≤ 0.25
IDAM	≤ 0.25
RDYD	≤ 0.25
SITC	5.56
SKKD	≤ 0.25
RRIY	≤ 0.25
HKAK	≤ 0.25
PCAV	≤ 0.25
QRCV	≤ 0.25
ETYN	≤ 0.25
SPWE	≤ 0.25
WDCK	≤ 0.25

Variant	enrichment ratio
MGTA	≤ 0.25
SCMF	12.3
LLCK	≤ 0.25
RYKT	≤ 0.25
DECY	≤ 0.25
LIAR	≤ 0.25
AMGS	4.58
SCHK	≤ 0.25
TGYD	≤ 0.25
GILR	12.2
FWQK	≤ 0.25
AILA	9.78
VHNW	≤ 0.25
ATQW	≤ 0.25
TLCG	0.756
VDWF	≤ 0.25
HQSM	≤ 0.25
SSSN	12.1
VEIC	4.5
QCIH	≤ 0.25
DCPH	≤ 0.25
AAIH	≤ 0.25
RIRS	≤ 0.25
HMQC	≤ 0.25
LMYW	≤ 0.25
MTIL	0.687

Variant	enrichment ratio
VAIG	≤ 0.25
FYDM	≤ 0.25
NPVG	≤ 0.25
WTNN	≤ 0.25
PQLW	≤ 0.25
GCEP	≤ 0.25
KHAH	≤ 0.25
STMH	8.42
RPPG	≤ 0.25
RLSI	≤ 0.25
RLCP	≤ 0.25
RPQY	≤ 0.25
ATRP	≤ 0.25
SRSL	≤ 0.25
GWYW	≤ 0.25
PACW	≤ 0.25
FMPS	≤ 0.25
HNEC	≤ 0.25
FNKW	≤ 0.25
MGFR	≤ 0.25
HGDP	≤ 0.25
PPDP	≤ 0.25
IYDC	≤ 0.25
